# Assay results: PubChem BioAssay AID624202 (National Center for Advancing Translational Sciences (NCATS), 2012)
# The whole screen tested about 380,000 compounds, of which about 4,000 (1.1%) were called active. The shares of active, inactive and inconclusive entries below differ from those in the screen. The call rests on the fitted dose curve; in most records, active means well fitted activation curve with a large enough effect; inconclusive means small, poorly fitted or top-dose-only effect; inactive means no such curve, though single readings can be large or run the other way. A potency beside an inconclusive call is a rough fit, not a confirmed value.
# Assay: qHTS Assay to Identify Small Molecule Activators of BRCA1 Expression; further: nearly all actives have a fitted effect of over 80% in size
# Settings: MCF7-BRCA1-FFLuc reporter, luminescence, 48 h; activation: at 46.1 µM (top of the series), scaled: vehicle 0%, 10 µM genistein 100% unless noted
# How it was run: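 MCF7-BRCA1-FFLuc, 2000 cells/well; 2 h attach, 37 °C/5% CO2; compound 48 h; luciferase substrate 15 min; luminescence end-point. Norm. to genistein 10 microM max activation and DMSO; concentration-response curves fitted.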
# Potency means the concentration at half of the fitted maximal effect; tags describe the fitted curve by direction and shape.
SMILES,Potency,activation
Cc1ccc(NC(=O)c2scc3c2CCCC3)cc1,"inconclusive: 28.2 µM [activator, single point]",
Cc1ccc2c(c1)OC(c1ccc3c(c1)OCCO3)CC2=O (stereo not drawn),"inconclusive: 31.6 µM [activator, single point]",
CCOC(=O)c1ccc(NCc2nc3ccccc3[nH]2)cc1,"inconclusive: 3.55 µM [activator, partial curve, poor fit]",
CN1C(=O)c2cccc(NCCCN3C(=O)c4ccccc4C3=O)c2C1=O,,inactive: -1.05%
CCO/C(C)=N/Oc1cc(OC)cc(OC)c1,,inactive: 9.05%
O=C(OCCN1CCOCC1)c1ccc(OCCN2CCOCC2)cc1,,inactive: -2.53%
Cc1cc(NC(=O)c2ccccc2)sc1C,"inconclusive: 3.16 µM [activator, partial curve, poor fit]",
CC(=O)Nc1nc(C2COc3ccccc3O2)cs1 (stereo not drawn),"inconclusive: 1 µM [activator, full curve, poor fit]",
Cc1c(Cl)cccc1NC(=O)CSc1nc(=O)n(Cc2ccco2)c2c1CCC2,,inactive: -10.9%
COc1ccc(-c2csc(NC(=O)COC(=O)c3ccco3)n2)cc1,"inconclusive: 3.16 µM [activator, partial curve, poor fit]",
O=C(NCCc1ccccc1)c1ccc(Cl)cc1[N+](=O)[O-],"inconclusive: 14.1 µM [activator, partial curve, poor fit]",
O=C(Nc1ccc(N2CCCC2)cc1)c1ccc2ccccc2c1,"inconclusive: 1.26 µM [activator, full curve, poor fit]",
COc1ccc(OCCSc2nc(N)cc(N)n2)cc1,active: 11.2 µM,
COc1ccc(N=Cc2c(O)[nH]c3ccccc23)cc1,"inconclusive: 1 µM [activator, full curve, poor fit]",
Cc1ccc(SCC(=O)NC2CCCCCC2)cc1,"inconclusive: 11.2 µM [activator, partial curve, poor fit]",
O=c1c(-c2nnc(SCc3ccc(Cl)cc3Cl)o2)cccn1Cc1ccccc1,,inactive: -44.4%
N#C/C(=N\Nc1ccc(F)cc1)C(=N)N1CCCCC1,"inconclusive: 0.631 µM [activator, full curve, poor fit]",
O=C(C[n+]1ccc(C(=O)N/N=C/c2ccc(OCc3ccccc3)cc2)cc1)c1ccccc1,"inconclusive: 15.8 µM [activator, partial curve, poor fit]",
CC1CCC(NC(=O)N(CCCl)N=O)CC1 (stereo not drawn),active: 5.01 µM,
COc1ccc(/C=N/Nc2ccccn2)c(OC)c1OC,active: 11.2 µM,
Nc1ccc(-c2cc3ccccc3oc2=O)cc1,,inactive: -79.1%
CC(C)c1ccc(OCc2ccc(C(=O)NN3CCN(C)CC3)o2)cc1,"inconclusive: 3.16 µM [activator, partial curve, poor fit]",
Fc1ccc(CSc2ccc(-c3cccs3)nn2)cc1,active: 10 µM,
CC(C)N(C(=O)CSc1nnc(CNc2ccc(F)cc2)o1)C(C)C,,inactive: -1.08%
O=C(NCc1ccccn1)c1nc(-c2cccs2)no1,,inactive: 58.7%
COc1ccc2nc(NC(=O)c3ccoc3C)sc2c1,"inconclusive: 0.501 µM [activator, full curve, poor fit]",

SMILES,Potency,activation
CCC(C(=O)OCC(=O)Nc1ccc(C(=O)Nc2ccc(OC)cc2)cc1)c1ccccc1 (stereo not drawn),"inconclusive: 35.5 µM [activator, single point]",
C/C(=N\NC(=O)c1cccc(N/N=C(\C)c2cc(O)ccc2O)c1)c1cc(O)ccc1O,,inactive: -86.7%
CCNc1nc2c(c(=O)[nH]c(=O)n2C)n1CCCc1ccccc1,,inactive: -20.8%
Cc1ccc(/C=N/n2nnnc2N)cc1,active: 6.31 µM,
O=C(NCC(=O)N1CCCC(C(F)(F)F)C1)c1ccccc1F (stereo not drawn),"inconclusive: 12.6 µM [activator, single point]",
CC(C)(C)c1ccc(NC(=O)c2ccccc2)c([N+](=O)[O-])c1,"inconclusive: 1.58 µM [activator, full curve, poor fit]",
O=C(NCCc1ccc(F)cc1)c1n[nH]c2ccccc12,"inconclusive: 7.94 µM [activator, partial curve, poor fit]",
COc1cccc2cc(-c3ccccc3)c(=O)oc12,active: 2.51 µM,
C=CCn1cccc(C(=O)Nc2ccc(C)cc2)c1=O,"inconclusive: 1.26 µM [activator, full curve, poor fit]",
CCOC(=O)CSc1c(-c2ccc(Cl)cc2)[nH]c2ccccc12,,inconclusive: -73.6% [activator]
C[N+]1(CC(=O)c2c3ccccc3cc3ccccc23)CCOCC1,,inactive: 3.19%
CCCn1nc(NC(=O)c2ccccn2)c2cc3cc(C)ccc3nc21,active: 11.2 µM,
Cc1ccccc1OCc1nc(-c2ccc(NC(=O)c3ccco3)cc2)no1,"inconclusive: 2.82 µM [activator, full curve, poor fit]",
Cc1cnc(-c2nnc(N(C)C(=O)C3CCOC3)s2)cn1 (stereo not drawn),active: 7.94 µM,
Cc1ccc(NC(=S)NC(=O)C2CCCCC2)c(Br)c1,"inconclusive: 2.51 µM [activator, partial curve, poor fit]",
Cc1ccc(-c2nn(-c3ccccc3)cc2/C=C2\SC(=S)N(CC(=O)O)C2=O)cc1,,inactive: -0.135%
COc1cc2ccccc2cc1C(=O)Nc1ccc(O)cc1,"inconclusive: 1.58 µM [activator, partial curve, poor fit]",
O=C(Nc1ccc2c(c1)OCO2)c1cnccn1,"inconclusive: 35.5 µM [activator, single point]",
Cc1cc(Br)c2[nH]cc(CCNC(=O)c3ccco3)c2c1,,inactive: -16.4%
COc1ccc(NC(=O)CN(C)C(=O)CCC2CCCC2)cc1,,inactive: -2.84%
CN(C)c1ccc(CNc2ccccn2)cc1,"inconclusive: 10 µM [activator, partial curve, poor fit]",
Cn1cc(/C=C/C(=O)c2ccccc2)c2ccccc21,"inconclusive: 2.51 µM [activator, partial curve, poor fit]",
O=C(Nc1ncc(Cc2cccc(Cl)c2Cl)s1)C1CCCO1 (stereo not drawn),"inconclusive: 2.82 µM [activator, full curve, poor fit]",
COc1ccccc1OCCNC(=O)c1ccc2c(c1)CCC2,active: 11.2 µM,
NC(=O)c1c(NC(=O)c2cnccn2)sc2c1CCCC2,active: 7.94 µM,
Cc1ccc(OCc2cc(C(=O)N(C)CCc3ccccc3)no2)cc1C,"inconclusive: 10 µM [activator, partial curve, poor fit]",

SMILES,Potency,activation
O=C(Nc1ccc2c(c1)OCO2)c1ccc2c(c1)OCO2,,inactive: -5.1%
O=C(COc1ccc(-c2nnco2)cc1)Nc1c(F)cccc1F,,inactive: -0.224%
Cc1ccc(NC(=O)CSc2nnc3ccccn23)c(Cl)c1,"inconclusive: 15.8 µM [activator, partial curve, poor fit]",
CC1Oc2ccccc2N(CC(=O)NCc2ccccc2)C1=O (stereo not drawn),"inconclusive: 2.24 µM [activator, partial curve, poor fit]",
O=C(Nc1ccc(N2CCCCC2)cc1)c1cccnc1Cl,active: 10 µM,
O=C(NC(=S)N1CCN(c2ccc(Cl)cc2[N+](=O)[O-])CC1)c1cccs1,,inactive: -23.4%
COC(=O)c1c(NC(C)=O)sc(Cc2ccccc2)c1C,,inactive: -15.4%
Cc1ccc(C)c(OCc2cc(C(=O)N3CCOCC3)no2)c1,active: 17.8 µM,
COc1ccccc1CNc1nc(Nc2ccc(C)cc2C)c2sccc2n1,,inactive: -25%
CCNC(=O)COc1ccc2ccccc2c1,"inconclusive: 12.6 µM [activator, partial curve, poor fit]",
CCC(C(=O)Nc1nc(C)c(C)s1)c1ccccc1 (stereo not drawn),,inactive: -38%
COc1ccc(CCNC(=O)c2ccc3c(c2)OCO3)cc1,"inconclusive: 14.1 µM [activator, partial curve, poor fit]",
CCS(=O)(=O)n1nc(-c2ccco2)nc1SC,,inactive: 23.8%
O=C(c1cc2cc(Br)ccc2o1)N1CCCC1,"inconclusive: 15.8 µM [activator, partial curve, poor fit]",
O=C(N/N=C/c1c[nH]c2ccccc12)c1ccc2c(c1)OCCO2,"inconclusive: 1.12 µM [activator, full curve, poor fit]",
CCCCOc1ccc(C(=O)N2CCCC2)cc1,"inconclusive: 35.5 µM [activator, single point]",
O=C1/C(=C\Nc2ccc(Cl)cc2)CCN1c1ncccn1,"inconclusive: 10 µM [activator, partial curve, poor fit]",
CCc1ccc(NC(=O)N2CCN(c3ccc(F)cc3)CC2)cc1,,inactive: 11.9%
Nc1cc(Cl)nc(N/N=C/c2ccccc2[N+](=O)[O-])n1,active: 11.2 µM,
O=C1C=C(O)c2cccc(O)c2C1=O,,inactive: -4.55%
O=[N+]([O-])c1ccccc1NC(=S)N/N=C/c1ccc(O)c(O)c1,"inconclusive: 2.51 µM [activator, partial curve, poor fit]",
Cc1ccc(CSc2nnc(-c3ccc4c(c3)OCO4)o2)cc1,"inconclusive: 14.1 µM [activator, partial curve, poor fit]",
O=C(NNC(=O)C1CC2CCC1C2)c1sc2ccccc2c1Cl (stereo not drawn),"inconclusive: 5.62 µM [activator, full curve, poor fit]",
Cn1nc(C(=O)Nc2nc3ccccc3[nH]2)ccc1=O,active: 7.94 µM,
CCOC(=O)C1CCN(C(=O)Nc2ccc(NC(=O)C3CCN(C(=O)OCC)CC3)cc2)CC1,,inactive: 1.48%
O=C(Nc1ncc(Cc2ccccc2)s1)C1COc2ccccc2O1 (stereo not drawn),"inconclusive: 2.24 µM [activator, full curve, poor fit]",
